The supplement of paper PMC3724861
Some of the results follow.

The sequences below were run on T1, Caupolican (Caup) homeodomain DNA-binding domain (assay: PBM E-score (8-mer, recovered from the published 9-mer minima) (E-score (dimensionless, -0.5 to 0.5)); Drosophila protein; higher = stronger relative binding preference, active = 0.31 or more).
T1 sequence: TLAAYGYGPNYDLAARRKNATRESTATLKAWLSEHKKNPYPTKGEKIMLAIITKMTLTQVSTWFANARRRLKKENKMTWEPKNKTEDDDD
How it was run: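 An enrichment score, with higher meaning stronger, expresses relative binding preference for each short DNA word. The protein used was Caup's homeodomain DNA-binding domain (residues 214-303), produced by in vitro transcription and translation and tested at 100 nM on custom-designed protein binding microarrays. The 8-mer values were recovered from published 9-mer scores, each equal to the lower of its two constituent 8-mer scores.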
With AGTTAGGA the “PBM E-score” value was inactive: 0.0819.
GGCTAGTA was tested, and the “PBM E-score” value was inactive: 0.0954.
CGCCTAAC was tested, and the “PBM E-score” value was inactive: -0.0152.
In the case of CTACCGAA, the “PBM E-score” value is reported as inactive: -0.00615.
With CTCCAAGA the “PBM E-score” value was no less than 0.0411.
With CTGGAGTC the “PBM E-score” value was inactive: -0.133.
For TACTGTCA, the “PBM E-score” value was inactive: 0.107.
AGGATTCA was tested, and the “PBM E-score” value was inactive: -0.0189.
With ACCCCCCT the “PBM E-score” value was inactive: -0.293.
For CAACAATA, the “PBM E-score” value was inactive: 0.246.
In the case of CGAAATGC, the “PBM E-score” value is reported as inactive: 0.0102.
With GCCGATAC the “PBM E-score” value was inactive: -0.0154.
For CACGCATC, the “PBM E-score” value was inactive: -0.0387.
With ATACTCCG the “PBM E-score” value was inactive: -0.0434.
In the case of AACGAGTG, the “PBM E-score” value is reported as inactive: 0.0806.
For TAACAGGA, the “PBM E-score” value was inactive: 0.205.
With CGGCGCAG the “PBM E-score” value was inactive: -0.165.
With AGTACCAC the “PBM E-score” value was inactive: 0.207.
With ACCCTCAT the “PBM E-score” value was inactive: -0.129.
With CCGGTTAG the “PBM E-score” value was inactive: -0.116.
For GCTAGTGA, the “PBM E-score” value was inactive: 0.0792.
For ATTTCGTA, the “PBM E-score” value was no less than 0.136.
With CTTGAGAA the “PBM E-score” value was inactive: 0.045.
In the case of AACGTTCC, the “PBM E-score” value is reported as inactive: -0.0613.
With GGAGTTTA the “PBM E-score” value was inactive: -0.00351.
With CCATTGAG the “PBM E-score” value was inactive: 0.00252.
In the case of ACTTATGG, the “PBM E-score” value is reported as inactive: -0.099.
In the case of GCTGGGTA, the “PBM E-score” value is reported as inactive: -0.104.
ACAGATAG was tested, and the “PBM E-score” value was inactive: 0.0925.
For ATGCACTC, the “PBM E-score” value was inactive: -0.0467.
ATACCAAA was tested, and the “PBM E-score” value was inactive: 0.127.
With CCCCGCCC the “PBM E-score” value was inactive: -0.181.
For CCGATTTC, the “PBM E-score” value was inactive: -0.0954.
In the case of AACTTCTC, the “PBM E-score” value is reported as inactive: 0.0165.
With AGTCGGAC the “PBM E-score” value was inactive: 0.00218.
With TACTATGA the “PBM E-score” value was inactive: 0.118.
With GAGCGCTC the “PBM E-score” value was inactive: -0.263.
For GTTGGACA, the “PBM E-score” value was inactive: 0.201.
ATAGAAAG was tested, and the “PBM E-score” value was inactive: 0.0139.
In the case of ATACCGCG, the “PBM E-score” value is reported as inactive: -0.0685.
ATTTATTG was tested, and the “PBM E-score” value was inactive: 0.101.
In the case of GATCTCGC, the “PBM E-score” value is reported as inactive: -0.112.
In the case of CAATTCTC, the “PBM E-score” value is reported as inactive: 0.0354.
In the case of ATTGTGTC, the “PBM E-score” value is reported as inactive: 0.258.
For ACTTATAC, the “PBM E-score” value was inactive: 0.0474.
AAGTAAGT was tested, and the “PBM E-score” value was inactive: 0.0486.
For AACGGCAG, the “PBM E-score” value was inactive: -0.118.
In the case of AAAGTTAA, the “PBM E-score” value is reported as inactive: 0.102.
With GTTGCCTA the “PBM E-score” value was inactive: -0.0141.
With CTGCCGCC the “PBM E-score” value was inactive: -0.315.
GACCATCA was tested, and the “PBM E-score” value was inactive: -0.0209.
For CAAGTTGA, the “PBM E-score” value was inactive: 0.0268.
GTTAGCAA was tested, and the “PBM E-score” value was inactive: 0.154.
In the case of CACCGACG, the “PBM E-score” value is reported as inactive: -0.0869.
For AGGCGAGC, the “PBM E-score” value was inactive: -0.145.
In the case of GGGTATGA, the “PBM E-score” value is reported as inactive: 0.0613.
For CCAAAAGA, the “PBM E-score” value was inactive: 0.0101.
With AATGGCTA the “PBM E-score” value was inactive: -0.0254.
For ACCCTAGG, the “PBM E-score” value was inactive: -0.105.
For AGCCTCCT, the “PBM E-score” value was no less than -0.116.
In the case of CCCATAAG, the “PBM E-score” value is reported as inactive: -0.102.
CGTCGTCC was tested, and the “PBM E-score” value was inactive: -0.0377.
With CCCGGCGG the “PBM E-score” value was inactive: -0.328.
In the case of GCTAACAC, the “PBM E-score” value is reported as inactive: 0.196.
For ACATGGGG, the “PBM E-score” value was inactive: 0.209.
For GGCGAACA, the “PBM E-score” value was inactive: 0.115.
In the case of CAACGCAA, the “PBM E-score” value is reported as inactive: 0.0313.
For ATTCGGCG, the “PBM E-score” value was inactive: -0.037.
In the case of AGGCGTAT, the “PBM E-score” value is reported as no less than 0.0384.
For CGTACCTC, the “PBM E-score” value was inactive: -0.0804.
For ATATCCAC, the “PBM E-score” value was inactive: 0.095.
For AAATGAGC, the “PBM E-score” value was inactive: 0.0494.
In the case of GTTGAATA, the “PBM E-score” value is reported as inactive: 0.134.
With AGTGATGC the “PBM E-score” value was inactive: -0.00144.
For CATGCAGG, the “PBM E-score” value was inactive: 0.00917.
With CTTCGCCC the “PBM E-score” value was inactive: -0.213.
For GAACAATC, the “PBM E-score” value was inactive: 0.12.
In the case of AAATCAGC, the “PBM E-score” value is reported as inactive: 0.0581.
AGATTGCT was tested, and the “PBM E-score” value was inactive: 0.0902.
CATCACAC was tested, and the “PBM E-score” value was inactive: 0.158.
For CACCATCC, the “PBM E-score” value was inactive: -0.0137.
ACTAATTA was tested, and the “PBM E-score” value was no less than 0.25.
GATTCGAA was tested, and the “PBM E-score” value was inactive: 0.048.
For GCCGATCA, the “PBM E-score” value was inactive: -0.0624.
For ACCGGGCT, the “PBM E-score” value was inactive: -0.152.
For AGATACAC, the “PBM E-score” value was inactive: 0.273.
TGGACCAA was tested, and the “PBM E-score” value was inactive: 0.0123.
ATAGACAC was tested, and the “PBM E-score” value was inactive: 0.259.
With CCAACCGG the “PBM E-score” value was inactive: -0.183.
For AGTTCCTC, the “PBM E-score” value was inactive: -0.0606.
In the case of CAACGGAA, the “PBM E-score” value is reported as inactive: 0.0457.
GCGGACCC was tested, and the “PBM E-score” value was inactive: -0.31.
For GTACGGCA, the “PBM E-score” value was inactive: -0.0722.
With ACTAGACG the “PBM E-score” value was inactive: -0.00182.
With CACAAATG the “PBM E-score” value was inactive: 0.0895.
GGTCTGTA was tested, and the “PBM E-score” value was inactive: -0.0174.
With ATGGGGGC the “PBM E-score” value was inactive: -0.283.
CAGTCCCC was tested, and the “PBM E-score” value was inactive: -0.245.
CACCAAGC was tested, and the “PBM E-score” value was inactive: -0.0417.
For AGAGAGCG, the “PBM E-score” value was inactive: -0.132.
For ATATGGGG, the “PBM E-score” value was inactive: -0.122.
For AAGATACA, the “PBM E-score” value was inactive: 0.22.
In the case of AAGAAGTA, the “PBM E-score” value is reported as inactive: 0.0627.
With CAGATTGG the “PBM E-score” value was inactive: -0.133.
With GTCACGGA the “PBM E-score” value was inactive: 0.0089.
In the case of CCAGTGAC, the “PBM E-score” value is reported as inactive: -0.0369.
For ACCGGCAT, the “PBM E-score” value was inactive: -0.0173.
With ATATGAAC the “PBM E-score” value was inactive: 0.178.
In the case of ATTAAAAA, the “PBM E-score” value is reported as inactive: 0.111.
For AGGCAACC, the “PBM E-score” value was inactive: -0.121.
With AAGAATTC the “PBM E-score” value was inactive: -0.0949.
